Our source for the T/C values is PubChem BioAssay AID202 (DTP/NCI, 2004).

Molecules are shown by their SMILES. Certain results were filed several times, with different values. This list holds those alone. An entry can have further records. Values that stand side by side do not match, cause unknown; dose, time, organism, isomer or construct need not be as stated for each record.

For the test, the system named is HT29 xenograft, nude mice, s.c., tumor weight T/C%. In words: NCI In Vivo Anticancer Drug Screen. Data for tumor model HT29;CX-1 Human Adenocarcinoma (MER+) (subcutaneous) in NU/NU Swiss (nude) mice. The settings on record: endpoint: optimum tumor weight change, higher = larger tumour. As for the experimental part:
The antitumor activity of compounds was measured in mice bearing transplantable tumors. Survival or tumor size were measured and the results are expressed as the measurement made in the treated group (T) divided by the measurement made in the vehicle treated control group (C). The tumor model used in this assay is HT29;CX-1 Human Adenocarcinoma (MER+) (subcutaneous) in NU/NU Swiss (nude) mice

`O=C(O)C1(C(=O)O)CCC1.[NH2-].[NH2-].[Pt+2]`: the T/C (dose: 12.5 mg/kg/injection, schedule: Q04DX003 (ip), vehicle: dextrose) was 40 % of control and 101 % of control.

Turning to `CN(CO)c1nc(N(C)CO)nc(N(C)CO)n1`, the T/C is, setting by setting: (dose: 100.0 mg/kg/injection, schedule: Q01DX005 (ip), vehicle: Klucel (hydroxypropylcellulose) (HPC)) 62 % of control and 91 % of control; (dose: 200.0 mg/kg/injection, schedule: Q04DX005 (ip), vehicle: Klucel (hydroxypropylcellulose) (HPC)) 56 % of control and 101 % of control.

As to `CN(C)c1nc(N(C)C)nc(N(C)C)n1`, for the setting “dose: 60.0 mg/kg/injection, schedule: Q01DX005 (ip), vehicle: Klucel (hydroxypropylcellulose) (HPC)”, the T/C is 55 % of control and 83 % of control.

With `N=c1ccn2c(n1)OC1C(O)C(CO)OC12` (centres undefined), the T/C (dose: 400.0 mg/kg/injection, schedule: Q04DX003 (ip), vehicle: saline) is 35 % of control and 85 % of control.

For the molecule `CC(=O)OCC(=O)[C@@]12OC(C)(C)O[C@@H]1C[C@H]1[C@@H]3CC(C=O)=C4C=C(OCCCl)CC[C@]4(C)[C@@]3(F)[C@@H](O)C[C@@]12C`, under “dose: 50.0 mg/kg/injection, schedule: Q04DX003 (ip), vehicle: Klucel (hydroxypropylcellulose) (HPC)”, the T/C is 31 % of control and 78 % of control.

Take `CC(=O)OCC1OC(n2ccc(N)nc2=O)C(OC(C)=O)C1OC(C)=O` (centres undefined): the T/C (dose: 400.0 mg/kg/injection, schedule: Q04DX003 (ip), vehicle: suspension in saline) was 39 % of control and 73 % of control; the T/C (dose: 800.0 mg/kg/injection, schedule: Q04DX003 (ip), vehicle: suspension in saline) was 24 % of control and 104 % of control. Regarding `C[C@]12CC[C@@H]3c4ccc(OC(=O)Cc5ccc(N(CCCl)CCCl)cc5)cc4CC[C@H]3[C@@H]1CC[C@@H]2OC(=O)Cc1ccc(N(CCCl)CCCl)cc1`, where the note is “dose: 300.0 mg/kg/injection, schedule: Q04DX003 (ip), vehicle: saline with Tween-80”, the T/C is 57 % of control and 109 % of control.
